Experimental findings from the supplement of paper PMC11417369 are described below.

± gives the standard deviation of the averaged measurements. The list shows a part of the results.

This assay has as its system PfAP2-G AP2 domain (GST-tagged). As to the kind of experiment: gcPBM binding intensity (ln(normalized median fluorescence intensity)); higher = stronger DNA binding. Summed up:
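In this array assay, P. falciparum DNA-binding domains with a GST tag, expressed in E. coli, were applied for 1 h to primer-extended double-stranded 36-bp intergenic genomic probes and negative controls on an Agilent 4 × 180k array. Bound protein was visualised with Alexa488 anti-GST antibody at 488 nm. Binding intensity is the highest Masliner-normalised natural-log median intensity across replicate spots of either probe orientation.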
For “GAAATGTGTAGACACGCACACACAAAAAAATATATA [CACACA_site2912]”, the “gcPBM binding intensity (ln)” value was found to be 10.2 ± 0.34.

Turning to “TTATTAAATGAAAAATGTACATATAAATGATTATAT [XGTACX_site2788]”, the “gcPBM binding intensity (ln)” value was 11.1 ± 0.65.

As to “AAGCATGTAGAATAATGTACTTGTGATTTTAATATA [XGTACX_site8565]”, the “gcPBM binding intensity (ln)” value amounted to 10.9 ± 0.54.

“CCAAATTTATAAAGAACACACACATATATATATATA [CACACA_site7900]”: the “gcPBM binding intensity (ln)” value is 10 ± 0.26.

Consider “TATACATATTTAATATGTACATAATAATACTTATTC [XGTACX_site6939]”, for which the “gcPBM binding intensity (ln)” value came out at 11.2 ± 0.76.

For “TATATTAACAAAATGGTGCAATAATTTCTATATTAT [GTGCAC_site9857]”, the “gcPBM binding intensity (ln)” value turned out to be 10.1 ± 0.22.

With AAAAAAAAAATACAGGTGCAATAAGAAAAAAATGGT, the “gcPBM binding intensity (ln)” value worked out at 10.25 ± 0.085.

As to “ATATAGGTAATATTTTGTACATATTTTTGGGGTAGT [XGTACX_site5634]”, the “gcPBM binding intensity (ln)” value turned out to be 11.1 ± 0.52.

Take “AATTCTTTTTTCAACACACACACACCCGAAAATATA [CACACA_site3111]”: the “gcPBM binding intensity (ln)” value came to 10.3 ± 0.28.

As to “CATACATACATACATACACACATACATATATATATA [CACACA_site8388]”, the “gcPBM binding intensity (ln)” value amounted to 10.6 ± 0.45.

Regarding “TCTAAAATAGTCCAGAGTACAAGAAACCATAATATA [XGTACX_site5237]”, the “gcPBM binding intensity (ln)” value stood at 11.3 ± 0.79.

For the sequence “ATATTTTTTGTATGTTGTACATAAAATATACATTTT [XGTACX_site6815]”, the “gcPBM binding intensity (ln)” value worked out at 11.2 ± 0.88.

On to “AGATACTTTTTTAAAAGTACAAAAACTTTCGATATA [XGTACX_site959]”, for which the “gcPBM binding intensity (ln)” value was determined as 11.3 ± 0.69.

As for “TTGCTTATATTTCTAAAATGTAAAAGACACAAAGGT [XGTACX_negctrl_site225]”, the “gcPBM binding intensity (ln)” value worked out at 10.5 ± 0.67.

With “ATAAAAATATAAACATGTACATAAAAATCTATATAT [XGTACX_site405]”, the “gcPBM binding intensity (ln)” value stood at 11.3 ± 0.67.

As to “AAAAAAAAAAAAAACACACACACACCCAAATATATA [CACACA_site1169]”, the “gcPBM binding intensity (ln)” value was 10.2 ± 0.26.

As for “ATATATTTATTTATATGTACATAATATTTTTCTCAG [XGTACX_site800]”, the “gcPBM binding intensity (ln)” value was 11.2 ± 0.56.

On to “TTTTTTATTACTTTGTGTACTTACACAGAACCTTAT [XGTACX_site6038]”, for which the “gcPBM binding intensity (ln)” value amounted to 11.5 ± 0.88.

Regarding “AAAAATGCAATTTAATGTACACATAAGATGTTATTT [XGTACX_site6853]”, the “gcPBM binding intensity (ln)” value was 11.2 ± 0.79.

In the case of “TTCTAATATATGCATACACACAAATGTGAATATACA [CACACA_site2142]”, the “gcPBM binding intensity (ln)” value was determined as 10 ± 0.3.

Take “ATTAAATCTATATATACACACATGTTTGGTATATTC [CACACA_site2657]”: the “gcPBM binding intensity (ln)” value came to 9.9 ± 0.014.

Consider “TTTGTAATAAACTACTTTTTTTTTTTTTTTTTTTTT [CACACA_negctrl_site571]”, for which the “gcPBM binding intensity (ln)” value came out at 10.9 ± 0.35.

As for “TTTATATTACAATAATATATTAAAAAATAAAATATA [TGCATGCA_negctrl_site18]”, the “gcPBM binding intensity (ln)” value was 9.47 ± 0.028.

For “AAAAAAAATAGACACACACACATACACATAAATATA [CACACA_site7742]”, the “gcPBM binding intensity (ln)” value is 10.2 ± 0.33.

Turning to “AGGGTTACAAGAGGAACACACAAAAAAATAAATAAA [CACACA_site1436]”, the “gcPBM binding intensity (ln)” value was 10.2 ± 0.22.

In the case of “ATGTAGCCTTACGCTTGTACGAATATCTTAATTTTT [XGTACX_site4331]”, the “gcPBM binding intensity (ln)” value stood at 10.8 ± 0.34.

With “CGATTACTAATTTTTAGTACATATAATCAATATGTA [XGTACX_site7857]”, the “gcPBM binding intensity (ln)” value worked out at 11.1 ± 0.88.

In the case of “ATCTATTTCTATTGTTGTACTTATTTTTCATTGTTT [XGTACX_site6942]”, the “gcPBM binding intensity (ln)” value was found to be 11.6 ± 1.

Consider “ATATATTTTATTACCAGTACATATATTAAAATAATA [XGTACX_site8440]”, for which the “gcPBM binding intensity (ln)” value amounted to 11 ± 0.69.

On to “TTCATATAAATACATGCACACAAAAATATCAATACA [CACACA_site8753]”, for which the “gcPBM binding intensity (ln)” value amounted to 10.2 ± 0.25.

With “TATAATATAATATATATATATATATATATATAAGAA [CACACA_negctrl_site78]”, the “gcPBM binding intensity (ln)” value was determined as 9.57 ± 0.042.

Consider “TATACAATATAAAATACACACGCACCCAAAAAAAAA [CACACA_site9174]”, for which the “gcPBM binding intensity (ln)” value worked out at 10.6 ± 0.4.

With “ATTTTTTTATTTGATTGTACAATTTTCTTTCAAAAT [XGTACX_site2902]”, the “gcPBM binding intensity (ln)” value was 11 ± 0.47.

For “ATATAATGTGTAGGCCGTATTTACGTTTGGCAATCA [CACACA_negctrl_site1130]”, the “gcPBM binding intensity (ln)” value was 10.3 ± 0.17.

Turning to “AGAGTATATATATATGCATGCATATCTCATATTTAT [TGCATGCA_site509]”, the “gcPBM binding intensity (ln)” value is 9.71 ± 0.13.

Turning to “TAATGATAAATACATACACACAAAAAATAATATATA [CACACA_site2576]”, the “gcPBM binding intensity (ln)” value was 9.91 ± 0.13.

Regarding “TGTTATTATTTGTACACACACATATAGATCCTTGTT [CACACA_site7667]”, the “gcPBM binding intensity (ln)” value worked out at 11.3 ± 0.83.

Take “TATTATAAAGAAATTACACACATGCAATGAAAAAAA [CACACA_site1697]”: the “gcPBM binding intensity (ln)” value is 9.92 ± 0.028.

As to “TCGTTTCCTTAAAATTGTACTTTTTTTTTTTTTTTT [XGTACX_site64]”, the “gcPBM binding intensity (ln)” value is 11.6 ± 0.99.

Turning to “ATTAAAGAGATATATACACACATTATGGGGGAATAA [CACACA_site6226]”, the “gcPBM binding intensity (ln)” value amounted to 10.8 ± 0.49.

For “CCTAAATATTTTTTATGTACATATTTATCTAAATTT [XGTACX_site6835]”, the “gcPBM binding intensity (ln)” value was determined as 11.3 ± 0.76.

On to “TGAGGAAACATGAGATGTACATATAAATTTTTTTTT [XGTACX_site2595]”, for which the “gcPBM binding intensity (ln)” value was 11.1 ± 0.71.

Take “ATAGAAATTATAAATAGTACATAATAAAAATGAGCA [XGTACX_site822]”: the “gcPBM binding intensity (ln)” value was 11.1 ± 0.8.

As to “TAAGAAATAAATAGTACACACATAGACACCCACCCA [CACACA_site8429]”, the “gcPBM binding intensity (ln)” value turned out to be 11.7 ± 0.8.
